Changes are numbered by the printed parent chain. No constants are given. Whether binding was seen depends on the method and setting. In cells and extracts the contact can be indirect. Some results given as binding are weak or reduced against the parent protein; the word gives no strength. For some of these results: Tags and fused reporters may be left off the sequences shown.
Columns and labels:
HA-RalA G23V (mouse) = target: T1, HA-RalA G23V (mouse) (UniProt P63321); assay: co-IP; lysates of HEK293T cells triply transfected with HA-RalA (G23V or S28N), RalBP1 and PSD-95; immunoprecipitated with HA antibodies and immunoblotted
T1 sequence: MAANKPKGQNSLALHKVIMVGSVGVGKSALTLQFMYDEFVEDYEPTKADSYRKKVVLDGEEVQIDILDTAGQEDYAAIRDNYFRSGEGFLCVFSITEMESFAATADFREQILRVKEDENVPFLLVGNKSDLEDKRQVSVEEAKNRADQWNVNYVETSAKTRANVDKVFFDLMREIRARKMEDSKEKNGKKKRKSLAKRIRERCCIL

Protein sequences, listed by entry. Tags and fused reporters are not part of them.
UniProt P97879: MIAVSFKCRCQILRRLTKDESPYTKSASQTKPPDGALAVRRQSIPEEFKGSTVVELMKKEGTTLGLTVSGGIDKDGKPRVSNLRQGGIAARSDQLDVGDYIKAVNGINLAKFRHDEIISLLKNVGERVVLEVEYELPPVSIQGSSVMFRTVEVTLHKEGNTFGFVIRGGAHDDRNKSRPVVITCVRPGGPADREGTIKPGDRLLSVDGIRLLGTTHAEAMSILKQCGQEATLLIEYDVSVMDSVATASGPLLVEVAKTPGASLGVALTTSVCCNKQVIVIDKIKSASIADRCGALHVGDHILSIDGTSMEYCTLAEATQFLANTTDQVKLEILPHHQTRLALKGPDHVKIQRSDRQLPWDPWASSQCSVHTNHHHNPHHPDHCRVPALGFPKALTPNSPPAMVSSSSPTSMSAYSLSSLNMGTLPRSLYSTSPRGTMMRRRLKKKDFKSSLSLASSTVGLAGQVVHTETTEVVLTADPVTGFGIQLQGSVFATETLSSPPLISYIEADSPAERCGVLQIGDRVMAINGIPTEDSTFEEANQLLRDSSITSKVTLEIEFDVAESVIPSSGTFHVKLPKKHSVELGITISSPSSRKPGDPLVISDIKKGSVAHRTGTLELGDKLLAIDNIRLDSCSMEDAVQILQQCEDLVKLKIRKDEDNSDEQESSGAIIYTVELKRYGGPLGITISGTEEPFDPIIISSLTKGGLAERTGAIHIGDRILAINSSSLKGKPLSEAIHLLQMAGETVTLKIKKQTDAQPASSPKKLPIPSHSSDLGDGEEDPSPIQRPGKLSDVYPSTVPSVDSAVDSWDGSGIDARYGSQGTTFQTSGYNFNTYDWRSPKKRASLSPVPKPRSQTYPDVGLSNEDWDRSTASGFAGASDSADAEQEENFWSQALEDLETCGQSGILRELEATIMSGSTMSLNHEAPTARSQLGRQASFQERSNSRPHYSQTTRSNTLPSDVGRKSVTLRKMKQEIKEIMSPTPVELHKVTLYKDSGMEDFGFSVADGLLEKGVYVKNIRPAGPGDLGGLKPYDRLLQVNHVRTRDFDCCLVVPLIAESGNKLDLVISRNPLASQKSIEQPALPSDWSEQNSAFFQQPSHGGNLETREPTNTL
UniProt O88382: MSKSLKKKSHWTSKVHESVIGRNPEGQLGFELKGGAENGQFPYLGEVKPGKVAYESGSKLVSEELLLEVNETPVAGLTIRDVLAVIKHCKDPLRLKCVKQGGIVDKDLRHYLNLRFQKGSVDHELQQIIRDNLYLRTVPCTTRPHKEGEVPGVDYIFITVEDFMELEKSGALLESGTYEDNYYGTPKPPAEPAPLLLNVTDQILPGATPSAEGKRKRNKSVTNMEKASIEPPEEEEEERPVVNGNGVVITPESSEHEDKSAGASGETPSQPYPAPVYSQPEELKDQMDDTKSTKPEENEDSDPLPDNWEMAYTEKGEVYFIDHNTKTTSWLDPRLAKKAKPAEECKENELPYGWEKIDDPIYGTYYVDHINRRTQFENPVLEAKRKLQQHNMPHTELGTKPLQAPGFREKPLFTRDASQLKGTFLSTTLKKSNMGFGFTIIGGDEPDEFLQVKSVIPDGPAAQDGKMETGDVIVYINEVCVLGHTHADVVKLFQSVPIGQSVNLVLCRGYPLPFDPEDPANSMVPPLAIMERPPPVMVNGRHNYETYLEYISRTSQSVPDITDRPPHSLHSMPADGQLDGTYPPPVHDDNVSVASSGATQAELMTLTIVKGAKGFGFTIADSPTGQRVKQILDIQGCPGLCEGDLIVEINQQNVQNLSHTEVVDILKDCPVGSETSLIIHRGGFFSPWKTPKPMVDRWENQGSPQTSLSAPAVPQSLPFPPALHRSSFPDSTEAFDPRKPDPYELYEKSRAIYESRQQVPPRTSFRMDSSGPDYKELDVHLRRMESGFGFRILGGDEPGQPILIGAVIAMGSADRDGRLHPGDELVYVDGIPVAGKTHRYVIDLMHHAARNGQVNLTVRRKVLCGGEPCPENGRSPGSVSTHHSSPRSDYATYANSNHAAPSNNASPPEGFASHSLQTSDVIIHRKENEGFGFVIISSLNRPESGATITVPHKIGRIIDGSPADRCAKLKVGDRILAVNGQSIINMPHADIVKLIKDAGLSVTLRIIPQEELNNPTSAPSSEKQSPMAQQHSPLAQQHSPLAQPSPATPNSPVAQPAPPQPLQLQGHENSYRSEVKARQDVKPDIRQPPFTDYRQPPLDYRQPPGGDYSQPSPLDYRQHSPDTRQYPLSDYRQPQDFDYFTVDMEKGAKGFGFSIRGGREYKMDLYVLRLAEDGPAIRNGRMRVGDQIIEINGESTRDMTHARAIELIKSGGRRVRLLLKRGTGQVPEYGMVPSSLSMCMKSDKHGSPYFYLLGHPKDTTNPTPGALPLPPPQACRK
UniProt Q62696: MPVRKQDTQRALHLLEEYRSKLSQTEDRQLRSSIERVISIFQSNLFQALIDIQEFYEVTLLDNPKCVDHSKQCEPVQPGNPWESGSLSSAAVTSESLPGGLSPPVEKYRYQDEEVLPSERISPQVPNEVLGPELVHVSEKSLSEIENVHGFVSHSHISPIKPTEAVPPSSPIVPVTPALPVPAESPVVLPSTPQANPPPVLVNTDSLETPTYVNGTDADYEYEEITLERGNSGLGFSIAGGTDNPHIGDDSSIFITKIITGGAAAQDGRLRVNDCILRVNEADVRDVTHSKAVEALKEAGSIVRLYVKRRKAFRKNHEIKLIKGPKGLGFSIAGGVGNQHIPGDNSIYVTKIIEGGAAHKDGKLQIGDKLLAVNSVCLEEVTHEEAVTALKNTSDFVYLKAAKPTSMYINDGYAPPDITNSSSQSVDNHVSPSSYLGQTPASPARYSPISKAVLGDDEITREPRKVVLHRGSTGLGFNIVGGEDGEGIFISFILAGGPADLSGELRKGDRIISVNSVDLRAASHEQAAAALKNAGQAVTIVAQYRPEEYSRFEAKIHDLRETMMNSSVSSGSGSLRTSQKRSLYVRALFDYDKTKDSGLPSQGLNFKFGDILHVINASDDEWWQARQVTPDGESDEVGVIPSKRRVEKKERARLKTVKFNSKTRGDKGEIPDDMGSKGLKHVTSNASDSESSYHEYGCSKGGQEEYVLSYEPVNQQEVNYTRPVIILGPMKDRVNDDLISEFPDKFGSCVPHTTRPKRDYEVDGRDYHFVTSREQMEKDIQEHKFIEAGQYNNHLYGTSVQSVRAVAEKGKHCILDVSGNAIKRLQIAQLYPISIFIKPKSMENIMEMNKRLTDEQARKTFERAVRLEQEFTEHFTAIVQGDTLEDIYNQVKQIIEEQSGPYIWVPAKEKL
UniProt Q15311: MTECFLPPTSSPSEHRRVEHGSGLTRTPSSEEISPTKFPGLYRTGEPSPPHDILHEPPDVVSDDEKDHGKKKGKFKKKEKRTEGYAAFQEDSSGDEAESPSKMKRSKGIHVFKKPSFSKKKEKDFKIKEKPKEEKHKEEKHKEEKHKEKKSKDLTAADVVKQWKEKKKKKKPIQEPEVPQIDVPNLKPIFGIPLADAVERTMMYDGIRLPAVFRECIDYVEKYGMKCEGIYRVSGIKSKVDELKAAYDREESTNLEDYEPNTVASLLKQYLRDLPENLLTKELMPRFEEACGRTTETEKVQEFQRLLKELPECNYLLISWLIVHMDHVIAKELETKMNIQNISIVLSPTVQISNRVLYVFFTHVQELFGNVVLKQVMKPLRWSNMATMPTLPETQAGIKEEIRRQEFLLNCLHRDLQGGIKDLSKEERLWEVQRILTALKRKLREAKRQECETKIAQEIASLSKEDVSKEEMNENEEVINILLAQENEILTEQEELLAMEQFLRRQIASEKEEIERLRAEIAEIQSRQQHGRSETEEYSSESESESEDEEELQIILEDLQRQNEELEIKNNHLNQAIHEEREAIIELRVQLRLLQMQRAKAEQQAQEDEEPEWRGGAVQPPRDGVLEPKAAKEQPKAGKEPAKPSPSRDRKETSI

HA-RalA S28N (mouse) = target: T2, HA-RalA S28N (mouse) (UniProt P63321); assay: as above
T2 sequence: T1 sequence with V23G, S28N

[1] = target: GRIP1 (endogenous, rat brain) (rat (endogenous in rat brain)) (UniProt P97879); assay: co-IP; deoxycholate (1%) extracts of the crude synaptosomal fraction of adult rat brain; immunoprecipitated with PSD-95 or RalBP1 antibodies (boiled antibodies as control) and immunoblotted
[2] = target: S-SCAM (endogenous, rat brain) (rat (endogenous in rat brain)) (UniProt O88382); assay: as above
[3] = target: T3, SAP102 (endogenous, rat brain) (rat (endogenous in rat brain)) (UniProt Q62936); assay: as above
T3 sequence: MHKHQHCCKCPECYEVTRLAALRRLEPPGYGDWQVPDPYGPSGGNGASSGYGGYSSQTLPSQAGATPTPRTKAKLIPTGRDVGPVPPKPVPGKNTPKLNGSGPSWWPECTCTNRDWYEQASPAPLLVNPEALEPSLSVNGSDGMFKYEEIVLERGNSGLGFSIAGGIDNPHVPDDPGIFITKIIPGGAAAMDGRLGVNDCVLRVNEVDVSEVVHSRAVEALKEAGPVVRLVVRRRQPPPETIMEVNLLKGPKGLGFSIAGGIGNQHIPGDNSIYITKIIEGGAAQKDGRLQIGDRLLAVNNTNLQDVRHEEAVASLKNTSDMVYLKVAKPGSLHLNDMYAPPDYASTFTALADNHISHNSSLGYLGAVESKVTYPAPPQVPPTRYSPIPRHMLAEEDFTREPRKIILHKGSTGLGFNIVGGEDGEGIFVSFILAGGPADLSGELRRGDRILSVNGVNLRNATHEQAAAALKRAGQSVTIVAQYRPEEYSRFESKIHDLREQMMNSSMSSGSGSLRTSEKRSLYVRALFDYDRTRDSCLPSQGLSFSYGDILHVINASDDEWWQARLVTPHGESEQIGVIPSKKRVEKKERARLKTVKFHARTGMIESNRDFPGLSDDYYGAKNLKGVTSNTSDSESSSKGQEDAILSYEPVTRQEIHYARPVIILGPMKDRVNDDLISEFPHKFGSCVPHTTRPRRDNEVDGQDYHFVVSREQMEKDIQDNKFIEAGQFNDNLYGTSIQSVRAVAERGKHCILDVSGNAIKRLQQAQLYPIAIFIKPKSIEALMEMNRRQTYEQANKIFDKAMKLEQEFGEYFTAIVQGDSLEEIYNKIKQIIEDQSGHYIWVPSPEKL

[4] = target: SAP97 (endogenous, rat brain) (rat (endogenous in rat brain)) (UniProt Q62696); assay: as above
[5] = target: T4, RalA (endogenous, cultured rat hippocampal neurons) (rat (endogenous in cultured hippocampal neurons)), P63322; assay: co-IP; lysates of cultured neurons (>DIV 18), with or without NMDA treatment; immunoprecipitated with PSD-95 or POB1 antibodies and immunoblotted; settings: remark: other sources report otherwise
T4 chain: T1 sequence with V23G

RalBP1 (WT) (from UniProt Q15311 1-655)
binding (HA-RalA G23V (mouse)): binds
binding (HA-RalA S28N (mouse)): no binding

B1: RalBP1 (endogenous, rat) (protein, UniProt Q62796 1-647)
chain: MTECFLPPTSSPSEHRRAEHGSGLTRTPSSEEISPTKFPELYRTGEPSPPHDILHEPPDIVSDDEKDHGKKKGKFKKKEKRTEGYVAFQEDSSGDEAESPSKMKRSKGIHVFKKPSFSKKKEKDFKIKEKPKEEKHKEEKHKEEKHKEKKCKDFTAADVVKQWKEKKKKKKPTQEPEVPQTDAPSLRPIFGAPFADAVERTMMYDGIRLPAVFRECVDYMEKHGMKCEGIYRVSGIKSKVDELKAAYDREESPNLEEYEPNTVASLLKQYLRDLPENLLTKELMPRFEEACGRTTEVEKVQEFQRLLRELPEYNHLLLSWLIVHMDHVIAKELETKMNIQNISIVLSPTVQISNRVLYVLFTHVQELFGTVLLKQVTRPLRWSNMATMPTLPETQAGIKEEIRRQEFLLNCLHRDLQGGIKDFSKEERLWEVQRILTALKRKLREAKRQECETKIAQEIASLSKEDVSKEETNENEEVINILLAQENEILTEQEELLAMEQFLRRQIASEKEEIDRLRAEIAEIQSRQHGRSETEEYSSDSESESEDEEELQIILEDLQRQNEELEIKNNHLNQAVHEEREAIVELRVQLRLLQMLRAKSEQQLQEEEEPERRGGTGPLPCEGVLEVRAAKEQAKPSPSKDRKETPI
binding [1]: no binding
binding [2]: no binding
binding [3]: no binding
binding [4]: no binding

B2: RalBP1 (endogenous, rat), Q62796 1-647 (protein)
chain: B1 chain
binding [5]: no binding

From publication PMC2730530
